# Source: PubChem BioAssay (Tox21)
# The inconclusive results got no clear call from the source; some entries with a clear call stand among them for comparison. For some assays here: Potencies of inconclusive entries are doubtful fits and often do not repeat. The source made the active and inactive calls. Unless noted, calls follow the shape of the dose curve; as a rule, active = well fitted curve in the direction sought with a large enough effect in the repeat runs; inconclusive = weak or mixed curves; inactive = no such curve, though single readings can be large; an effect the other way counts as inactive or inconclusive.
# What was measured:
# [1] = qHTS assay for small molecule activators of the heat shock response signaling pathway - cell viability counter screen (AID 743209); details: HSE-bla HeLa viability, CellTiter-Glo luminescence, 5 h; activity change, negative = cytotoxicity: at 62.6 µM (top of the series); also: nearly all actives have a fitted effect of over 50% in size; also: potency is read from the fitted curve at half-maximal effect
# Summary of the method: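 Same-well multiplex: after 2.5 h room-temperature incubation with LiveBLAzer B/G substrate and fluorescence reading, CellTiter-Glo reagent was added to HSE-bla HeLa cells that had received compound for 5 h at 37 C; luminescence read after 30 min.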
# [2] = qHTS assay for small molecule activators of the heat shock response signaling pathway (AID 743210; active = well fitted activation curve with a large enough effect in the signal ratio in the repeat runs, with a control signal flat, not every such curve was filed as active; inconclusive = weak or mixed curves; the % refers to the signal ratio; also: % is scaled to controls: 0 for no effect and ±100 for the full control effect); details: HeLa HSE-bla reporter, beta-lactamase ratio, 5 h; activation: at 62.6 µM (top of the series) unless noted
# Summary of the method: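 Heat shock element–beta-lactamase HeLa reporter cells; qHTS with compounds for 5 h at 37 C; detection by FRET substrate fluorescence after 2.5 h at RT.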
# [3] = qHTS assay to identify small molecule agonists of the farnesoid-X-receptor (FXR) signaling pathway - cell viability counter screen (AID 743218); details: FXR-bla HEK293T viability, CellTiter-Glo luminescence, 16 h; viability change, negative = cytotoxic: at 62.6 µM (top of the series) unless noted; also: nearly all actives have a fitted effect of over 45% in size; also: potency is read from the fitted curve at half-maximal effect
# Summary of the method: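 Readout: CellTiter-Glo luminescence, 30 min RT, multiplexed after the FXR-bla FRET reading. HEK 293T FXR-UAS-bla cells received compound 5 h post-plating and were incubated 16 h at 37 C.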
# [4] = biological target: Nuclear receptor ROR-gamma (Homo sapiens) (UniProt P51449); assay: qHTS assay to identify small molecule antagonists of the retinoid-related orphan receptor gamma (ROR-gamma) signaling pathway (AID 1159521; also: nearly all actives have a fitted effect of over 50% in size; also: potency is read from the fitted curve at half-maximal effect)
# Summary of the method: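 Tet-on ROR-gamma CHO cells with ROR response element-luciferase reporter; compounds added 2 hr before 1 uM doxycycline induction, then 16 hr at 37 C. Antagonism scored as decreased ONE-Glo luminescence.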
# [5] = biological target: Bile acid receptor (Homo sapiens) (UniProt Q96RI1); assay: qHTS assay to identify small molecule antagonists of the farnesoid-X-receptor (FXR) signaling pathway (AID 743217; active = well fitted inhibition curve with a large enough effect in the signal ratio in the repeat runs, not every such curve was filed as active; inconclusive = weak or mixed curves, or effect the other way; inactive = no such curve, though single readings can be large or run the other way; the % refers to the signal ratio; also: potency is read from the fitted curve at half-maximal effect); details: HEK293T FXR-UAS-bla, beta-lactamase ratio, CDCA-stimulated, 16 h; activity change, negative = inhibition: at 62.6 µM (top of the series) unless noted
# Chain of UniProt Q96RI1 (Q96RI1 whole entry, looked up): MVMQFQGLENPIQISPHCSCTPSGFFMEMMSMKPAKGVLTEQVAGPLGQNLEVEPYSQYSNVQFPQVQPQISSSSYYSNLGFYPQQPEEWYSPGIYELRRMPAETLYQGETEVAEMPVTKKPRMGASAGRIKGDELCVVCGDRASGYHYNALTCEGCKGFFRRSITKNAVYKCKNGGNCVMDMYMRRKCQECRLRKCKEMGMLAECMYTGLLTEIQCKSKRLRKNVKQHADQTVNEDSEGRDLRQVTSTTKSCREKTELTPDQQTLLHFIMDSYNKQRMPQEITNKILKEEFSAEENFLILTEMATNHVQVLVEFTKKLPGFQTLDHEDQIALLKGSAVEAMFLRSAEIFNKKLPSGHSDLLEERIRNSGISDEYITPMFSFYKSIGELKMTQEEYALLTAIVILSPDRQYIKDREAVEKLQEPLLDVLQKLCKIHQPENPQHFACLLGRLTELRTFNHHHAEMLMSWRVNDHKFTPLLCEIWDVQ
# Summary of the method: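 FRET fluorescence after 2 h room-temperature LiveBLAzer loading gives the readout. Prior step: FXR-bla HEK 293T cells, seeded and incubated 5 h, received test compounds plus 50 uM final CDCA for 16 h at 37 °C.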
# [6] = biological target: Peroxisome proliferator-activated receptor delta (Homo sapiens) (UniProt Q03181); assay: qHTS assay to identify small molecule antagonists of the peroxisome proliferator-activated receptor delta (PPARd) signaling pathway (AID 743215; active = well fitted inhibition curve with a large enough effect in the signal ratio in the repeat runs, not every such curve was filed as active; inconclusive = weak or mixed curves, or effect the other way; inactive = no such curve, though single readings can be large or run the other way; the % refers to the signal ratio;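 also: cells stimulated with agonist L165041 at 300 nM final during compound exposure; % is scaled to controls: 0 for no effect and ±100 for the full control effect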); details: HEK293H PPARd-UAS-bla, beta-lactamase FRET ratio, antagonist, 17 h; ratio activity, negative = inhibition: at 62 µM (top of the series) unless noted
# Chain of UniProt Q03181 (Q03181 whole entry, looked up): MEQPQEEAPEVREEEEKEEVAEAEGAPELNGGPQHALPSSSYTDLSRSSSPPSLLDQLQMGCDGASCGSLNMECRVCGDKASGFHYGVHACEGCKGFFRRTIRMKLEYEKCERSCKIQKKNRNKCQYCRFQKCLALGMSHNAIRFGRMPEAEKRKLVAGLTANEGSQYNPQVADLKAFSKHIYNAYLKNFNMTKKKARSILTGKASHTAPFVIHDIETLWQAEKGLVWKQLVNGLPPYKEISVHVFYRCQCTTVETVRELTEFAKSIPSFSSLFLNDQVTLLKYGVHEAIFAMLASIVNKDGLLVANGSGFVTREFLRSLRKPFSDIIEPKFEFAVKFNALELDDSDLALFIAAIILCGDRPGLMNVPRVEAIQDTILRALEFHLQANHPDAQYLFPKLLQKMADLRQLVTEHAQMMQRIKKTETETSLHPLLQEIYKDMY
# Summary of the method: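 Fluorescence from cleaved LiveBLAzer B/G FRET substrate (2 h, room temperature) reports PPARd-driven beta-lactamase in HEK293H UAS-bla cells. Cells had been treated 17 h at 37 C with compound plus 300 nM final L165041.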
# [7] = qHTS assay to identify small molecule antagonists of the farnesoid-X-receptor (FXR) signaling pathway - cell viability counter screen (AID 743221; active = well fitted cell-killing curve with a large enough effect in the repeat runs, not every such curve was filed as active; inconclusive = weak or mixed curves, or effect the other way; inactive = no such curve, though single readings can be large or run the other way; also: % is scaled to controls: 0 for no effect and ±100 for the full control effect; nearly all actives have a fitted effect of over 50% in size); details: FXR-bla HEK293T viability, CellTiter-Glo luminescence, 16 h; activity change, negative = cytotoxicity: at 62.6 µM (top of the series) unless noted
# Summary of the method: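 GeneBLAzer FXR-UAS-bla HEK 293T cells, compound plus chenodeoxycholic acid (50 uM final), 16 h at 37 C. CellTiter-Glo added to the same wells after the beta-lactamase read; luminescence read after 30 min at room temperature as viability.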
# [8] = qHTS assay for small molecule agonists of the antioxidant response element (ARE) signaling pathway - cell viability counter screen (AID 743203; calls by dose curve; also: nearly all actives have a fitted effect of over 55% in size; also: potency is read from the fitted curve at half-maximal effect); details: ARE-bla HepG2 viability, CellTiter-Glo luminescence, 16 h; viability change, negative = cytotoxic: at 73.3 µM (top of the series)
# Summary of the method: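 Measured in the same wells as the beta-lactamase ARE reporter, this read-out is CellTiter-Glo luminescence from HepG2 ARE-bla cells given compounds for 16 hrs.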
# [9] = qHTS assay to identify small molecule antagonists of the peroxisome proliferator-activated receptor delta (PPARd) signaling pathway - cell viability counter screen (AID 743213); details: PPARd-bla HEK293H viability, CellTiter-Glo luminescence, 17 h; viability change, negative = cytotoxic: at 62 µM (top of the series) unless noted; also: nearly all actives have a fitted effect of over 50% in size; also: potency is read from the fitted curve at half-maximal effect
# Summary of the method: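 HEK293H cells with the PPARd UAS-bla reporter, co-treated 17 h at 37 C with compounds and L165041 (300 nM final), were lysed with CellTiter-Glo. Luminescence indicated viable cell content.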
# [10] = biological target: Vitamin D3 receptor (Homo sapiens) (UniProt P11473); assay: qHTS assay to identify small molecule antagonists of the vitamin D receptor (VDR) signaling pathway (AID 743223; active = well fitted inhibition curve with a large enough effect in the signal ratio in the repeat runs, not every such curve was filed as active; inconclusive = weak or mixed curves, or effect the other way; inactive = no such curve, though single readings can be large or run the other way; the % refers to the signal ratio; also: % is scaled to controls: 0 for no effect and ±100 for the full control effect); details: VDR-UAS-bla HEK293T, beta-lactamase FRET ratio, 16 h; activity change, negative = inhibition: at 61 µM (top of the series) unless noted
# Chain of UniProt P11473 (P11473 whole entry, looked up): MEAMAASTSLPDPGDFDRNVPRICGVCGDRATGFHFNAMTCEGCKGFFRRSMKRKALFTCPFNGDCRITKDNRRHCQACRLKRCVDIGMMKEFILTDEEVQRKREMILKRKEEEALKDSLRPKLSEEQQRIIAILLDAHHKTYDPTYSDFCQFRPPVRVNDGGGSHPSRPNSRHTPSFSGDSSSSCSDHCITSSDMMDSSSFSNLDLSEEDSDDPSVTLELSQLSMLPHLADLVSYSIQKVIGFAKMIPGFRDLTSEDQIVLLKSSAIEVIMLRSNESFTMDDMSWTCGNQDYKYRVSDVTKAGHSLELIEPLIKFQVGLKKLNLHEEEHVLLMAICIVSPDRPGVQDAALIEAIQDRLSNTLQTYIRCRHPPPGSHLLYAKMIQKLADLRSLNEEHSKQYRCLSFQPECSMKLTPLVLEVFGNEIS
# Summary of the method: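 VDR-bla cells were treated with compound plus 3 nM final 1alpha,25-dihydroxyvitamin D3 for 16 h at 37C. Beta-lactamase reporter read by B/G FRET substrate fluorescence after 2 h at room temperature. qHTS format.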
# [11] = biological target: Peroxisome proliferator-activated receptor delta (Homo sapiens) (UniProt Q03181); assay: qHTS assay to identify small molecule agonists of the peroxisome proliferator-activated receptor delta (PPARd) signaling pathway (AID 743212; calls by dose curve;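 also: HEK293H cells with PPARd UAS beta-lactamase reporter GeneBLAzer system; % is scaled to controls: 0 for no effect and ±100 for the full control effect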); details: HEK293H PPARd-UAS-bla, beta-lactamase FRET ratio, 17 h; activation: at 62.6 µM (top of the series) unless noted
# Summary of the method: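 Beta-lactamase reporter read by fluorescence (LiveBLAzer B/G FRET, 2 h, room temperature). Test agents, in DMSO, incubated at 37 C with PPARd-bla HEK293H cells.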
# [12] = qHTS assay to identify small molecule agonists of the peroxisome proliferator-activated receptor delta (PPARd) signaling pathway - cell viability counter screen (AID 743211); details: PPARd-bla HEK293H viability, CellTiter-Glo luminescence, 17 h; activity change, negative = cytotoxicity: at 62.6 µM (top of the series); also: potency is read from the fitted curve at half-maximal effect; nearly all actives have a fitted effect of over 55% in size
# Summary of the method: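 PPARd-bla HEK293H cells (3000/well) were pre-incubated 5 h at 37 C, then exposed to compound for 17 h at 37 C. After 2 h with LiveBLAzer substrate, CellTiter-Glo was added to the same wells; luminescence read after 30 min at room temperature.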
# [13] = biological target: Vitamin D3 receptor (Homo sapiens) (UniProt P11473); assay: qHTS assay to identify small molecule agonists of the vitamin D receptor (VDR) signaling pathway (AID 743222; calls by dose curve; also: % is scaled to controls: 0 for no effect and ±100 for the full control effect); details: HEK293T VDR-UAS-bla, beta-lactamase FRET ratio, 16 h; activation: at 63.5 µM (top of the series) unless noted
# Summary of the method: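 Following 4 h attachment at 37C, VDR-bla cells (2,000 per well) received DMSO-dissolved compounds or controls. After 16 h incubation, LiveBLAzer B/G FRET substrate was added and fluorescence read 2 h later at room temperature.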
# [14] = qHTS assay to identify small molecule agonists of the vitamin D receptor (VDR) signaling pathway - cell viability counter screen (AID 743224); details: VDR-bla HEK293T viability, CellTiter-Glo luminescence, 16 h; activity change, negative = cytotoxicity: at 62.6 µM (top of the series)
# Summary of the method: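 In parallel with the bla FRET readout, cytotoxicity toward VDR-bla cells after 16 h compound exposure was assessed by CellTiter-Glo, with luminescence recorded after a 30 min room-temperature incubation.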
# [15] = qHTS assay to identify small molecule antagonists of the vitamin D receptor (VDR) signaling pathway - cell viability counter screen (AID 743225); details: VDR-bla HEK293T viability, CellTiter-Glo luminescence, 16 h; viability change, negative = cytotoxic: at 61 µM (top of the series) unless noted
# Summary of the method: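 VDR-UAS-bla HEK 293T cells were plated and incubated 4 h at 37C, then dosed with compound plus 3 nM (final) 1-alpha,25-dihydroxyvitamin D3 for 16 h. After the 2 h beta-lactamase read, viability in the same wells was read as CellTiter-Glo luminescence after 30 min at room temperature.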
# Tags tell the direction and shape of the fitted curve or compound fluorescence and quenching.
compound,measurement,setting,value
CC[N+](C)(CC)CCOC(=O)C(O)(c1ccccc1)C1CCCCC1 (stereo not drawn),Potency,[1],inactive
same,Potency,[2],inactive
same,Potency,[3],inactive
same,Potency,[4],"inconclusive: 668 nM [inhibitor, partial curve, poor fit]"
CCCCOc1ccc(N)cc1,Potency,[2],inactive
same,Potency,[5],inactive
same,Potency,[3],"inconclusive: 1740 nM [rising, full curve, poor fit]"
same,Potency,[4],inactive
C=CCOC(=O)CCCCCC,Potency,[2],inactive
same,"ratio activity, negative = inhibition",[6],inconclusive: 9.12%
same,Potency,[3],inactive
same,"activity change, negative = cytotoxicity",[7],inconclusive: 6.59%
same,Potency,[4],inactive
COC(c1ccccc1)(c1ccccc1)[C@H](Oc1nc(C)cc(C)n1)C(=O)O,Potency,[8],inactive
same,Potency,[1],"inconclusive: 42.2 nM [rising, partial curve, poor fit]"
same,"ratio activity, negative = inhibition",[6],inconclusive: -0.608%
same,Potency,[4],inactive
O=C(c1ccc(O)cc1)c1ccc(O)cc1,Potency,[8],"inconclusive: 34400 nM [rising, partial curve, poor fit]"
same,Potency,[9],"inconclusive: 195 nM [cytotoxic, full curve, poor fit]"
same,"ratio activity, negative = inhibition",[6],inconclusive: -22.8%
same,"activity change, negative = inhibition",[10],inconclusive: -31.1%
same,Potency,[4],inactive
C=C(C)C(=O)OCC,Potency,[11],inactive
same,"viability change, negative = cytotoxic",[9],inconclusive: -19.9% [cytotoxic] [at 80.4 µM]
same,Potency,[10],inactive
same,Potency,[4],"inconclusive: 1010 nM [inhibitor, full curve, poor fit]"
CCO[Si](CCCCl)(OCC)OCC,Potency,[12],"inconclusive: 21700 nM [cytotoxic, partial curve, poor fit]"
same,activation,[13],inconclusive: 0.661%
same,Potency,[14],"inconclusive: 21700 nM [cytotoxic, single point]"
same,Potency,[4],"inconclusive: 341 nM [inhibitor, partial curve, poor fit]"
COc1cc2nc(N3CCN(C(=O)C4COc5ccccc5O4)CC3)nc(N)c2cc1OC (stereo not drawn),Potency,[12],"inconclusive: 37600 nM [cytotoxic, single point]"
same,Potency,[5],"inconclusive: 23700 nM [inhibitor, partial curve]"
same,Potency,[3],"inconclusive: 188 nM [rising, partial curve, poor fit]"
same,Potency,[4],"inconclusive: 29800 nM [inhibitor, single point]"
CC1CCC(CO)CC1 (stereo not drawn),Potency,[1],inactive
same,Potency,[11],inactive
same,Potency,[15],inactive
same,Potency,[4],inactive
